{
  "source": "the supplement of paper PMC8728848",
  "assay_in_all_cases": "glycan array binding signal (z-score within array); higher = stronger binding",
  "conditions_in_all_cases": "glycan notation: IUPAC condensed, linker removed",
  "key": {"[1]": {"biological_target": "Man(a1-2)Man(a1-6)[Man(a1-3)]Man(a1-6)[Man(a1-2)Man(a1-2)Man(a1-3)]Man", "summary_of_the_method": "(§1)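 The binding signal is a Z-score computed within each array. Data were drawn from 3228 arrays in the Consortium for Functional Glycomics database, restricted to those with a known protein sequence. Scores were averaged over arrays of the same protein sequence at different concentrations or buffers, and over linkers, and negative values can be taken as non-binding.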"}, "[2]": {"biological_target": "Man(a1-2)Man(a1-6)[Man(a1-3)]Man(a1-6)[Man(a1-2)Man(a1-2)Man(a1-3)]Man(b1-4)GlcNAc(b1-4)GlcNAc", "summary_of_the_method": "as §1"}, "Man(a1-3)[Man(a1-6)]Man": {"biological_target": "Man(a1-3)[Man(a1-6)]Man", "summary_of_the_method": "as §1"}, "[3]": {"biological_target": "Man(a1-3)[Man(a1-6)]Man(a1-6)[Man(a1-2)Man(a1-3)]Man(b1-4)GlcNAc(b1-4)GlcNAc", "summary_of_the_method": "as §1"}, "[4]": {"biological_target": "Man(a1-3)[Man(a1-6)]Man(a1-6)[Man(a1-3)]Man", "summary_of_the_method": "as §1"}, "[5]": {"biological_target": "Man(a1-3)[Man(a1-6)]Man(a1-6)[Man(a1-3)]Man(b1-4)GlcNAc(b1-4)GlcNAc", "summary_of_the_method": "as §1"}, "[6]": {"biological_target": "Man(a1-3)[Man(a1-6)]Man(b1-4)GlcNAc(b1-4)GlcNAc", "summary_of_the_method": "as §1"}, "Man(a1-6)Man": {"biological_target": "Man(a1-6)Man", "summary_of_the_method": "as §1"}, "Man(b1-4)GlcNAc": {"biological_target": "Man(b1-4)GlcNAc", "summary_of_the_method": "as §1"}, "Neu5Ac(a2-3)Gal": {"biological_target": "Neu5Ac(a2-3)Gal", "summary_of_the_method": "as §1"}, "[7]": {"biological_target": "Neu5Ac(a2-3)Gal(b1-3)GalNAc", "summary_of_the_method": "as §1"}, "[8]": {"biological_target": "Neu5Ac(a2-3)Gal(b1-3)GalNAc(b1-3)Gal(a1-4)Gal(b1-4)Glc", "summary_of_the_method": "as §1"}, "[9]": {"biological_target": "Neu5Ac(a2-3)Gal(b1-3)GalNAc(b1-3)Gal(b1-4)GlcNAc", "summary_of_the_method": "as §1"}, "[10]": {"biological_target": "Neu5Ac(a2-3)Gal(b1-3)GalNAc(b1-4)[Neu5Ac(a2-3)]Gal(b1-4)Glc", "summary_of_the_method": "as §1"}, "[11]": {"biological_target": "Neu5Ac(a2-3)Gal(b1-3)GalNAc6S", "summary_of_the_method": "as §1"}, "[12]": {"biological_target": "Neu5Ac(a2-3)Gal(b1-3)GlcNAc", "summary_of_the_method": "as §1"}, "[13]": {"biological_target": "Neu5Ac(a2-3)Gal(b1-3)GlcNAc(b1-3)Gal(b1-3)GlcNAc", "summary_of_the_method": "as §1"}, "[14]": {"biological_target": "Neu5Ac(a2-3)Gal(b1-3)GlcNAc6S", "summary_of_the_method": "as §1"}, "[15]": {"biological_target": "Neu5Ac(a2-3)Gal(b1-3)[Fuc(a1-4)]GlcNAc", "summary_of_the_method": "as §1"}, "[16]": {"biological_target": "Neu5Ac(a2-3)Gal(b1-3)[Fuc(a1-4)]GlcNAc(b1-3)Gal(b1-4)[Fuc(a1-3)]GlcNAc", "summary_of_the_method": "as §1"}, "[17]": {"biological_target": "Neu5Ac(a2-3)Gal(b1-3)[Neu5Ac(a2-3)Gal(b1-4)]GlcNAc", "summary_of_the_method": "as §1"}, "[18]": {"biological_target": "Neu5Ac(a2-3)Gal(b1-3)[Neu5Ac(a2-6)]GalNAc", "summary_of_the_method": "as §1"}, "Neu5Ac(a2-3)Gal(b1-4)Glc": {"biological_target": "Neu5Ac(a2-3)Gal(b1-4)Glc", "summary_of_the_method": "as §1"}, "[19]": {"biological_target": "Neu5Ac(a2-3)Gal(b1-4)GlcNAc", "summary_of_the_method": "as §1"}, "[20]": {"biological_target": "Neu5Ac(a2-3)Gal(b1-4)GlcNAc(b1-2)Man(a1-3)[GlcNAc(b1-2)Man(b1-4)GlcNAc(b1-2)Man(a1-6)]Man(b1-4)GlcNAc(b1-4)GlcNAc", "summary_of_the_method": "as §1"}, "[21]": {"biological_target": "Neu5Ac(a2-3)Gal(b1-4)GlcNAc(b1-2)Man(a1-3)[Neu5Ac(a2-6)Gal(b1-4)GlcNAc(b1-2)Man(a1-6)]Man(b1-4)GlcNAc(b1-4)GlcNAc", "summary_of_the_method": "as §1"}, "[22]": {"biological_target": "Neu5Ac(a2-3)Gal(b1-4)GlcNAc(b1-3)Gal(b1-3)GlcNAc", "summary_of_the_method": "as §1"}, "[23]": {"biological_target": "Neu5Ac(a2-3)Gal(b1-4)GlcNAc(b1-3)Gal(b1-4)GlcNAc", "summary_of_the_method": "as §1"}, "[24]": {"biological_target": "Neu5Ac(a2-3)Gal(b1-4)GlcNAc(b1-3)Gal(b1-4)GlcNAc(b1-3)Gal(b1-4)GlcNAc", "summary_of_the_method": "as §1"}, "[25]": {"biological_target": "Neu5Ac(a2-3)Gal(b1-4)GlcNAc(b1-3)Gal(b1-4)[Fuc(a1-3)]GlcNAc", "summary_of_the_method": "as §1"}, "[26]": {"biological_target": "Neu5Ac(a2-3)Gal(b1-4)GlcNAc(b1-6)[Gal(b1-3)]GalNAc", "summary_of_the_method": "as §1"}, "[27]": {"biological_target": "Neu5Ac(a2-3)Gal(b1-4)GlcNAc(b1-6)[Neu5Ac(a2-3)Gal(b1-3)]GalNAc", "summary_of_the_method": "as §1"}, "[28]": {"biological_target": "Neu5Ac(a2-3)Gal(b1-4)GlcNAc6S", "summary_of_the_method": "as §1"}, "[29]": {"biological_target": "Neu5Ac(a2-3)Gal(b1-4)[Fuc(a1-3)]GlcNAc", "summary_of_the_method": "as §1"}, "[30]": {"biological_target": "Neu5Ac(a2-3)Gal(b1-4)[Fuc(a1-3)]GlcNAc(b1-3)Gal", "summary_of_the_method": "as §1"}, "[31]": {"biological_target": "Neu5Ac(a2-3)Gal(b1-4)[Fuc(a1-3)]GlcNAc(b1-3)Gal(b1-4)GlcNAc", "summary_of_the_method": "as §1"}, "[32]": {"biological_target": "Neu5Ac(a2-3)Gal(b1-4)[Fuc(a1-3)]GlcNAc(b1-3)Gal(b1-4)[Fuc(a1-3)]GlcNAc(b1-3)Gal(b1-4)[Fuc(a1-3)]GlcNAc", "summary_of_the_method": "as §1"}, "[33]": {"biological_target": "Neu5Ac(a2-3)Gal(b1-4)[Fuc(a1-3)]GlcNAc(b1-6)[Gal(b1-3)]GalNAc", "summary_of_the_method": "as §1"}, "[34]": {"biological_target": "Neu5Ac(a2-3)Gal(b1-4)[Fuc(a1-3)]GlcNAc6S", "summary_of_the_method": "as §1"}},
  "note": "This is one part of the list.",
  "data": [
    {"binder": "CD83 (Homo sapiens) (protein) MSRGLQLLLLSCAYSLAPATPEVKVACSEDVDLPCTAPWDPQVPYTVSWVKLLEGGEERMETPQEDHLRGQHYHQKGQNGSFDAPNERPYSLKIRNTTSCNSGTYRCTLQDPDGQRNLSGKVILRVTGCPAQRKEETFKKYRAETSEQKLISEEDLSRGSDDDDKAEPRGP", "values": [
      {"measurement": "glycan array binding signal (z-score)", "setting": "[1]", "result": -0.272},
      {"measurement": "glycan array binding signal (z-score)", "setting": "[2]", "result": 1.64},
      {"measurement": "glycan array binding signal (z-score)", "setting": "Man(a1-3)[Man(a1-6)]Man", "result": -0.106},
      {"measurement": "glycan array binding signal (z-score)", "setting": "[3]", "result": 11.7},
      {"measurement": "glycan array binding signal (z-score)", "setting": "[4]", "result": -0.285},
      {"measurement": "glycan array binding signal (z-score)", "setting": "[5]", "result": 0.723},
      {"measurement": "glycan array binding signal (z-score)", "setting": "[6]", "result": -0.201},
      {"measurement": "glycan array binding signal (z-score)", "setting": "Man(a1-6)Man", "result": -0.345},
      {"measurement": "glycan array binding signal (z-score)", "setting": "Man(b1-4)GlcNAc", "result": -0.203},
      {"measurement": "glycan array binding signal (z-score)", "setting": "Neu5Ac(a2-3)Gal", "result": -0.105},
      {"measurement": "glycan array binding signal (z-score)", "setting": "[7]", "result": -0.061},
      {"measurement": "glycan array binding signal (z-score)", "setting": "[8]", "result": 0.647},
      {"measurement": "glycan array binding signal (z-score)", "setting": "[9]", "result": -0.209},
      {"measurement": "glycan array binding signal (z-score)", "setting": "[10]", "result": 0.069},
      {"measurement": "glycan array binding signal (z-score)", "setting": "[11]", "result": -0.173},
      {"measurement": "glycan array binding signal (z-score)", "setting": "[12]", "result": -0.246},
      {"measurement": "glycan array binding signal (z-score)", "setting": "[13]", "result": -0.102},
      {"measurement": "glycan array binding signal (z-score)", "setting": "[14]", "result": 8.93},
      {"measurement": "glycan array binding signal (z-score)", "setting": "[15]", "result": -0.283},
      {"measurement": "glycan array binding signal (z-score)", "setting": "[16]", "result": -0.081},
      {"measurement": "glycan array binding signal (z-score)", "setting": "[17]", "result": -0.458},
      {"measurement": "glycan array binding signal (z-score)", "setting": "[18]", "result": 0.241},
      {"measurement": "glycan array binding signal (z-score)", "setting": "Neu5Ac(a2-3)Gal(b1-4)Glc", "result": -0.155},
      {"measurement": "glycan array binding signal (z-score)", "setting": "[19]", "result": -0.186},
      {"measurement": "glycan array binding signal (z-score)", "setting": "[20]", "result": -0.215},
      {"measurement": "glycan array binding signal (z-score)", "setting": "[21]", "result": -0.335},
      {"measurement": "glycan array binding signal (z-score)", "setting": "[22]", "result": -0.299},
      {"measurement": "glycan array binding signal (z-score)", "setting": "[23]", "result": -0.176},
      {"measurement": "glycan array binding signal (z-score)", "setting": "[24]", "result": -0.448},
      {"measurement": "glycan array binding signal (z-score)", "setting": "[25]", "result": -0.41},
      {"measurement": "glycan array binding signal (z-score)", "setting": "[26]", "result": -0.14},
      {"measurement": "glycan array binding signal (z-score)", "setting": "[27]", "result": -0.237},
      {"measurement": "glycan array binding signal (z-score)", "setting": "[28]", "result": 0.045},
      {"measurement": "glycan array binding signal (z-score)", "setting": "[29]", "result": -0.289},
      {"measurement": "glycan array binding signal (z-score)", "setting": "[30]", "result": -0.365},
      {"measurement": "glycan array binding signal (z-score)", "setting": "[31]", "result": 0.381},
      {"measurement": "glycan array binding signal (z-score)", "setting": "[32]", "result": -0.243},
      {"measurement": "glycan array binding signal (z-score)", "setting": "[33]", "result": -0.12},
      {"measurement": "glycan array binding signal (z-score)", "setting": "[34]", "result": -0.229}
    ]}
  ]
}
